Some of the results follow.
system: PfAP2-HC AP2 domain (GST-tagged); assay: gcPBM binding intensity (ln(normalized median fluorescence intensity)); higher = stronger DNA binding
How it was run: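 DNA-binding domains from P. falciparum, fused to GST and produced in E. coli, were put on an Agilent 4 × 180k double-stranded probe array for 1 h in 1× PBS holding 1% milk, 0.2 mg/ml BSA, 0.5% salmon testes DNA and 0.03% Triton X-100. Probes were primer-extended, 36 bp long and drawn from intergenic genomic regions, with negative controls included. After Alexa488 anti-GST antibody detection and a 488 nm scan, binding intensity was set as the highest Masliner-normalised natural-log median intensity across replicate spots of either probe orientation.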

| Sequence | gcPBM binding intensity (ln) |
| --- | --- |
| AAAAAAAACGCACATACACACACACCCATATATATA [CACACA_site9118] | 10.4 |
| AAAAAAAAAAAAAAGGTGCAAATAAATTAACCTTAT | 9.57 |
| TTTTATTTTTTCCGACGTACATCCATTATATATAAT [XGTACX_site4469] | 9.78 |
| AAATGTTAAAATGACAGTACATATATAAAAAAAAAA [XGTACX_site3936] | 9.77 |
| AAGAACAGAACGTACACACACATATATATATATATA [CACACA_site3457] | 10.3 |
| AAAAAAAGAATGTGAACACACACATTGAATATAATT [CACACA_site8341] | 10 |
| AATTATTTACCCTATACACACAAAACCCACTAAAAA [CACACA_site4801] | 10.2 |
| TATAAATAAATACATACACACACATACATATATATA [CACACA_site9024] | 10.4 |
| AATCATATGAAAAATACATGCGCATGGATACCTTTA [TGCATGCA_site224] | 9.86 |
| TACTTATGTGCATACCTACACACTTACATATATATA [CACACA_site2975] | 10.1 |
| GATGATGTTTATTTGTGTACATATTAATACTTAATA [XGTACX_site1902] | 9.86 |
| TTTTCTTTTTTTTATTGTACTTATAAAAATAAATAA [XGTACX_site3498] | 9.42 |
| ATAGGACATGTATCCAGTACATATTTAAAAAAAATA [XGTACX_site88] | 9.6 |
| GCATATATCAAATATCGTACATTTTTTAAATTAAAA [XGTACX_site3994] | 9.33 |
| ATAAAATCAAAATATACACACAAGGGGGAAAATCAA [CACACA_site2809] | 10 |
| TTTGTAAGTCTTTGTTGTACTCAATAGAATGAAGAA [XGTACX_site8930] | 9.45 |
| ATGAAAAAAAGACATGCATGTAAATATAAATTGCTT [TGCATGCA_site504] | 10.2 |
| CTCATTTTGTTAATGGTGCAAAAAAAAAAAAAAAAA | 8.92 |
| CATTATAAGAGACACACACACATATATAAATATGTA [CACACA_site6621] | 10.9 |
| AGTAAGAGGCATTAAGCATGCATATTATTATAAGCA [TGCATGCA_site237] | 9.85 |
| TATTTAAAACTATACACATGCATTATATAAAGATAT [TGCATGCA_site702] | 9.55 |
| TTTCATTTTTGAAGGTGTACTTAAAATTTATGTAAT [XGTACX_site6671] | 9.31 |

| Sequence | gcPBM binding intensity (ln) |
| --- | --- |
| AAAATTTATTATCTATATAATAATATGAAACAAAAC [GTGCAC_negctrl_site731] | 9.59 |
| AAAAAAACATAAAATACACACAACCTTAAGAATGTA [CACACA_site3293] | 10.1 |
| TTATAAAATATATATACATGCACAAAATTATAAGTA [TGCATGCA_site294] | 9.83 |
| AATCAACATTTTTTTTGCTATTTTTTTTTTTAATTA [CACACA_negctrl_site891] | 9.64 |
| GACAATATTAAAACATGTACATGCATTTTATGAATA [XGTACX_site553] | 9.65 |
| TATAATATAAAATATGCACACATTGGAATGGGAGAA [CACACA_site3746] | 10.1 |
| TATTGTAAAGTGTCATTATTACGTTATATTATATAT [CACACA_negctrl_site98] | 9.76 |
| TAAAAAAAAGGAAATACATGCATCTACATATATATA [TGCATGCA_site500] | 9.52 |
| ATATATTTCATTTTTGTACACACAACGTTGGAGGGT [CACACA_site8999] | 9.94 |
| AAAAAAAAAATATATATATATATATAATATATATAT [TGCATGCA_negctrl_site329] | 9.43 |
| ATATAGGTAATAATAATACACACGGTGAAATATAGA [CACACA_site4040] | 10 |
| AAAAACTAACTGTATTGTACTCTCTTATAAATTCAC [XGTACX_site8967] | 9.65 |
| TATAATTTAAAATACACACACATATATATAATATAT [CACACA_site2000] | 10.1 |
| TAAATACATTTATATACACACCTATATATATATATA [CACACA_site5137] | 9.72 |
| TCCAAATGAAAAAATTGTACATATTTTATCATATAT [XGTACX_site6159] | 9.58 |
| ATAAGAAATTTCATACGTACATAAATAAATATATAT [XGTACX_site2932] | 9.7 |
| ATATAAGTATACACATGTACATATTTCTTATGTATA [XGTACX_site2854] | 9.74 |
| GTATGATGTGAACATTGTACGAATGAATATATCTAA [XGTACX_site3789] | 9.55 |
| TATAAAGACACGTACACACACTAAGTATATCCAATA [CACACA_site6855] | 10.5 |
| AAAAAATTTATAAAAGCACACAAAATAAAAAAAAAT [CACACA_site8420] | 9.78 |
| AAAATGTTAAATATTAAATATGAAACAAAAAAAAAA [GTGCAC_negctrl_site211] | 9.64 |
| AATAAAATATAAACATTATATATATATATATATATA [GTGCAC_negctrl_site58] | 9.44 |

Reference: the supplement of paper PMC11417369
